About 310 (0.076%) of roughly 410,000 compounds were called active. The inconclusive results got no clear call from the source; some entries with a clear call stand among them for comparison. Calls follow the shape of the dose curve; as a rule, active = well fitted curve in the direction sought with a large enough effect; inconclusive = small, poorly fitted or top-dose-only effect; inactive = flat fitted curve, though single readings scatter. Where the call is inconclusive, the potency comes from a doubtful curve fit.
These compounds were tested against DNA dC->dU-editing enzyme APOBEC-3G (Homo sapiens) (UniProt Q9HC16) (assay: qHTS for Inhibitors of Vif-A3G Interactions: qHTS). Settings: HeLa A3G-eYFP + Vif (tagged APOBEC3G with the HIV-1 protein that degrades it), YFP fluorescence, overnight; series mostly up to 46.1 µM; activity, negative = active: at the top concentration.
UniProt Q9HC16, sequence (Q9HC16 whole entry, looked up): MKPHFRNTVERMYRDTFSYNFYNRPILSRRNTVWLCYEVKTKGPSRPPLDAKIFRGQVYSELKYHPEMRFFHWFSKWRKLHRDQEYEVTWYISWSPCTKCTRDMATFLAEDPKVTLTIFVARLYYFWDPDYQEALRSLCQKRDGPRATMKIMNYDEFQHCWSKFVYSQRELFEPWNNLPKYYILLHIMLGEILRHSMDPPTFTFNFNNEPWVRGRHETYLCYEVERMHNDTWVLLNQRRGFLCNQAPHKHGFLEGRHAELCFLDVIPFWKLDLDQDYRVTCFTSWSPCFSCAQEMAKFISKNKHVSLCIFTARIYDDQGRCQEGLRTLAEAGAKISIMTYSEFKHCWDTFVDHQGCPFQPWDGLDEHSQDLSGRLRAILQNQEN
How it was run: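 HeLa cells stably expressing Vif and C-terminally eYFP-tagged A3G, seeded overnight at 37 deg C, then exposed to compound by pintool overnight at 37 deg C. Rise in yellow fluorescence (Ex 488/Em 500-530, Acumen) marks blocked Vif-driven A3G degradation.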
% is scaled to controls: 0 for no effect and ±100 for the full control effect; potency is read from the fitted curve at half-maximal effect; tags tell the direction and shape of the fitted curve.
Also: nearly all actives have a fitted effect of over 60% in size.
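For activity, negative = active in this document: hits raise eYFP signal because A3G escapes Vif-driven loss.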

| SMILES | activity, negative = active | Potency |
| --- | --- | --- |
| Cc1sc(NC(=S)NC(=O)c2ccc(C(C)(C)C)cc2)c(C#N)c1C | inactive: 2.95% |  |
| CCc1ccc(NC(=O)c2cc3c(=O)n(Cc4cccs4)ccc3nc2C)cc1 | inactive: -5.48% |  |
| CCOc1ccc(N(CC(=O)Nc2ccccc2C)S(=O)(=O)c2c(C)noc2C)cc1 |  | inconclusive: 2 µM [inhibitor, full curve] |
| CC(=O)Nc1ccc(SC[C@H](C)CN2CC[C@H](O)CCC2=O)cc1 |  | inactive |
| O=C(Nc1ccc(S(=O)(=O)N2CCOCC2)cc1)c1cc(-c2cc(Cl)ccc2O)n[nH]1 |  | inconclusive: 2.51 µM [inhibitor, full curve, poor fit] |
| Cc1ccc(CN2CCSc3ccc(C(=O)NCCCN4CCOCC4)cc32)cc1 | inactive: -1.51% |  |
| CC(C)(C)c1ccc(C(=O)C[n+]2cccc3cc(Cl)ccc32)cc1 |  | inconclusive: 17.8 µM [inhibitor, partial curve, poor fit] |
| COc1ccc(S(=O)(=O)N2CCN(Cc3ccc4c(c3)OCO4)CC2)cc1OC | inactive: 3.61% |  |
| COC(=O)c1c(NC(=O)C(Cl)Cl)sc2c1C(C(=O)OC)CC2 (centres undefined) |  | inconclusive: 3.55 µM [inhibitor, full curve, poor fit] |
| CCOC(=O)c1c(C)oc2c1c1c(c3ccccc32)OCN(CCCC(=O)O)C1 | inactive: -10.8% |  |
| CCCC1=Nc2cc(C(=O)NCCCOC(C)C)ccc2Sc2ccccc21 |  | inconclusive: 3.98 µM [inhibitor, single point] |
| CCN1CCN(C(=O)/C=C/c2c(F)cccc2Cl)CC1 | inactive: -1.86% |  |
| CCCC(=O)Nc1ccc(NC(=S)NC(=O)c2ccccc2[N+](=O)[O-])cc1 |  | inconclusive: 7.94 µM [inhibitor, partial curve, poor fit] |
| CNC(=O)/C(C#N)=C/c1ccc(-c2ccc(Cl)cc2)o1 | inactive: -1.89% |  |
| O=C(O)c1ccc(-c2nc(-c3ccccc3)cs2)cc1 | inactive: -1.86% |  |
| O=c1cc(-c2cccc(F)c2)[nH]c2ccccc12 |  | inconclusive: 1.12 µM [inhibitor, full curve, poor fit] |
| NS(=O)(=O)c1ccc(CCNC(=O)c2cncc(Br)c2)cc1 | inactive: 0.137% |  |
| COc1ccc(C=C2CCc3ccccc3C2=O)cc1 |  | inconclusive: 22.4 µM [inhibitor, single point] |
| C=CCn1c(SCC(=O)Nc2sccc2C(N)=O)nc2sc(CC)cc2c1=O |  | inconclusive: 12.6 µM [inhibitor, single point] |
| CC(=O)N1c2ccc(S(=O)(=O)NCCC(=O)NCCc3ccc(Cl)cc3)cc2CC1C (centres undefined) | inactive: 2.69% |  |
| CCOc1ccc(S(=O)(=O)N(CC(=O)N/N=C/c2ccc(-c3ccc([N+](=O)[O-])cc3)o2)c2ccccc2)cc1 |  | inconclusive: 4.47 µM [inhibitor, full curve, poor fit] |
| Cc1cnc(NC(=O)c2ccc3c(c2)OCCO3)s1 |  | inconclusive: 7.08 µM [inhibitor, full curve] |

| SMILES | activity, negative = active | Potency |
| --- | --- | --- |
| O=C(/C(C=Nc1ccc(F)cc1)=C(/O)c1ccco1)C(F)(F)F |  | inconclusive: 22.4 µM [inhibitor, single point] |
| COc1ccc(-n2nnnc2S(=O)(=O)Cc2ccc(C(=O)O)cc2)cc1 |  | inconclusive: 15.8 µM [inhibitor, partial curve, poor fit] |
| COc1ccc(C(=O)N2CCN(c3cccc(Cl)c3)CC2)cc1S(=O)(=O)NC1CC1 |  | inconclusive: 14.1 µM [inhibitor, partial curve, poor fit] |
| COc1cc(Br)c(C2CC(=O)Nc3cc4c(cc32)OCCO4)cc1OC (centres undefined) |  | inconclusive: 10 µM [inhibitor, partial curve] |
| c1ccc(-c2cc(-c3nnc4n3N=C(c3ccc5ccccc5c3)CS4)[nH]n2)cc1 |  | inconclusive: 17.8 µM [inhibitor, single point] |
| COc1ccc(-c2cc(C(=O)Nc3ccc(C)c(N)c3)c3ccccc3n2)cc1 |  | inconclusive: 15.8 µM [inhibitor, single point] |
| COCCOC(=O)c1[nH]c2c(c1C)C(=O)CC(c1ccccc1)C2 (centres undefined) |  | inconclusive: 0.562 µM [inhibitor, full curve, poor fit] |
| COc1cc(C2c3cc4c(cc3OC(N3CCCC3)C2C)OCO4)cc(OC)c1O (centres undefined) |  | inconclusive: 10 µM [inhibitor, partial curve, poor fit] |
| Nc1cccc(CCc2nc3cc4ccccc4cc3[nH]2)c1 |  | inconclusive: 7.08 µM [inhibitor, partial curve, poor fit] |
| COc1cccc(C2c3cc4c(cc3OC(N3CCOCC3)C2C)OCO4)c1O (centres undefined) |  | inconclusive: 7.08 µM [inhibitor, partial curve, poor fit] |
| CCCN(CCC)CCCNC(=O)c1sc2nc3n(c(=O)c2c1C)CCC3 | inactive: 3.82% |  |
| COc1ccc(CN(C(C)=O)c2cccc(C)c2C)cc1 |  | inconclusive: 11.2 µM [inhibitor, partial curve, poor fit] |
| O=C(c1cc(-c2cccnc2)nc2ccccc12)N1CCCc2ccccc21 |  | inconclusive: 15.8 µM [inhibitor, single point] |
| S=C(Nc1ccccn1)NC1CCCC1 | inactive: 0.0624% |  |
| Cc1ccc(C(=O)Cn2c(C(=O)/C=C/c3ccccc3)nc3ccccc32)cc1 |  | inconclusive: 35.5 µM [inhibitor, single point] |
| CC1=CCC2C(=O)N(c3cccc(C(=O)Nc4ccc(Cl)cc4)c3)C(=O)C2C1 (centres undefined) | inactive: 2.04% |  |
| O=[N+]([O-])c1ccc(Nc2ccccc2)c2nonc12 |  | inconclusive: 28.2 µM [inhibitor, single point] |
| FC(F)Oc1ccc(-n2cc(-c3ccc(Cl)cc3)[n+]3c2CCCCC3)cc1 | inactive: -0.56% |  |
| O=C(Nc1c(C(=O)N2CCN(c3ccccc3F)CC2)oc2ccccc12)c1ccc(Br)o1 | inactive: 6.89% |  |
| COc1ccccc1NC(=S)N(Cc1ccccc1)Cc1ccccn1 | inactive: -0.848% |  |
| Cc1ccc(S(=O)(=O)Nc2cccc3cccnc23)c([N+](=O)[O-])c1 |  | inconclusive: 35.5 µM [inhibitor, single point] |
| O=c1[nH]c(-c2cccnc2)nc2sc(-c3ccccc3)cc12 |  | inconclusive: 1.26 µM [inhibitor, full curve, poor fit] |

From PubChem BioAssay AID602310 (National Center for Advancing Translational Sciences (NCATS), 2012)
